Source: the supplement of paper PMC4967469
IC50 is the fitted dose that halves viability relative to control wells, and lower means more sensitive; where the fit passes the top or lowest dose, that dose stands as a limit. For AUC the same curve is integrated over the 256-fold range of doses and scaled to a fraction; the more sensitive the line, the further below 1. For part of these data: Any top dose called inferred comes from the curve model; the source does not state it. For part of these data: Drugs with an entry number were screened twice under separate entries, and the two screens often disagree.

Assays:
Assay in all cases: Viability of human cancer cell lines after 72 h of drug (GDSC screen)
[1] = compound: CC(C)(C)c1cc(NC(=O)Nc2ccc(-c3cn4c(n3)sc3cc(OCCN5CCOCC5)ccc34)cc2)no1 [AC220]; details: top dose 1.024 µM; top dose inferred
Description: (§1)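 Human cancer cell lines in 384-well plates, medium with 10% serum, drug for 72 h over a 256-fold dose range (nine 2-fold or five 4-fold steps up to the top dose). Adherent lines were fixed and stained with the nucleic acid dye Syto60, suspension lines read with resazurin; signal relative to control wells, capped at 0 and 100%. One two-parameter sigmoid per drug and line, fitted in a mixed model over all curves with the slope shared within a line.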

[2] = compound: O=c1[nH]cc(F)c(=O)[nH]1 [5-Fluorouracil]; details: top dose 32 µM; top dose inferred
Description: as §1

[3] = compound: OC[C@H](Cc1ccccc1)Nc1nc(Oc2ccc3c(c2)CCC3)nc2c1ncn2Cc1ccc(-c2ccccc2)cc1 [QS11]; details: top dose 10.24 µM
Description: as §1

[4] = compound: COc1cc(F)c(F)c(Nc2ccc(I)cc2F)c1NS(=O)(=O)C1(C[C@H](O)CO)CC1 [RDEA119]; details: top dose 5 µM, top dose inferred
Description: as §1

[5] = compound: C#Cc1cccc(Nc2ncnc3cc(OC)c(OCCCCCCC(=O)NO)cc23)c1 [CUDC-101]; details: top dose 5.12 µM; top dose inferred
Description: as §1

[6] = compound: NCC(=O)Nc1ccc(-n2nc(C(F)(F)F)cc2-c2ccc3c(ccc4ccccc43)c2)cc1 [OSU-03012]; details: top dose 16 µM; top dose inferred
Description: as §1

[7] = compound: Fc1cc(-c2ccnc(Nc3ccc(-n4cnc(N5CCOCC5)n4)cc3)n2)cc(N2CCOCC2)c1 [JNK-9L]; details: top dose 5.12 µM; top dose inferred
Description: as §1

## 8-MG-BA (glioma, adherent)
[1]
  AUC: 0.985
  IC50: > 1.02 µM
[2]
  AUC: 0.859
  IC50: 23.9 µM
[3]
  AUC: 0.787
  IC50: 4.15 µM
[4]; screen: GDSC drug entry 1014
  AUC: 0.944
  IC50: > 5 µM
[4]; screen: GDSC drug entry 1526
  AUC: 0.9
  IC50: > 5 µM
[5]
  AUC: 0.565
  IC50: 0.476 µM
[6]
  AUC: 0.558
  IC50: 1.42 µM
[7]
  AUC: 0.315
  IC50: 0.101 µM

## 22RV1 (prostate, adherent)
[1]
  AUC: 0.981
  IC50: > 1.02 µM
[2]
  AUC: 0.487
  IC50: 1.82 µM
[3]
  AUC: 0.858
  IC50: > 10.2 µM
[4]; screen: GDSC drug entry 1014
  AUC: 0.89
  IC50: > 5 µM
[4]; screen: GDSC drug entry 1526
  AUC: 0.908
  IC50: > 5 µM
[5]
  AUC: 0.326
  IC50: 0.0922 µM
[6]
  AUC: 0.737
  IC50: 5.71 µM
[7]
  AUC: 0.683
  IC50: 1.19 µM

## 42-MG-BA (glioma, adherent)
[1]
  AUC: 0.971
  IC50: > 1.02 µM
[2]
  AUC: 0.724
  IC50: 9.13 µM
[3]
  AUC: 0.985
  IC50: > 10.2 µM
[4]; screen: GDSC drug entry 1014
  AUC: 0.909
  IC50: > 5 µM
[4]; screen: GDSC drug entry 1526
  AUC: 0.922
  IC50: > 5 µM
[5]
  AUC: 0.62
  IC50: 0.702 µM
[6]
  AUC: 0.845
  IC50: 12.7 µM
[7]
  AUC: 0.725
  IC50: 1.46 µM

## 451Lu (melanoma, adherent)
[1]
  AUC: 0.989
  IC50: > 1.02 µM
[2]
  AUC: 0.959
  IC50: > 32 µM
[3]
  AUC: 0.88
  IC50: 9.89 µM
[4]; screen: GDSC drug entry 1014
  AUC: 0.243
  IC50: 0.0591 µM
[4]; screen: GDSC drug entry 1526
  AUC: 0.446
  IC50: 0.223 µM
[5]
  AUC: 0.655
  IC50: 0.844 µM
[6]
  AUC: 0.714
  IC50: 3.9 µM
[7]
  AUC: 0.457
  IC50: 0.245 µM

## 639-V (bladder, adherent)
[1]
  AUC: 0.992
  IC50: > 1.02 µM
[2]
  AUC: 0.954
  IC50: > 32 µM
[3]
  AUC: 0.623
  IC50: 1.32 µM
[4]; screen: GDSC drug entry 1014
  AUC: 0.864
  IC50: 3.33 µM
[4]; screen: GDSC drug entry 1526
  AUC: 0.934
  IC50: > 5 µM
[5]
  AUC: 0.747
  IC50: 1.43 µM
[6]
  AUC: 0.271
  IC50: 0.252 µM
[7]
  AUC: 0.444
  IC50: 0.231 µM

## 647-V (bladder, adherent)
[1]
  AUC: 0.987
  IC50: > 1.02 µM
[2]
  AUC: 0.851
  IC50: 24.7 µM
[3]
  AUC: 0.925
  IC50: > 10.2 µM
[4]; screen: GDSC drug entry 1014
  AUC: 0.847
  IC50: 3.7 µM
[4]; screen: GDSC drug entry 1526
  AUC: 0.885
  IC50: > 5 µM
[5]
  AUC: 0.785
  IC50: 2.19 µM
[6]
  AUC: 0.708
  IC50: 3.88 µM
[7]
  AUC: 0.521
  IC50: 0.366 µM

## 697 (lymphoblastic leukaemia, suspension)
[1]
  AUC: 0.951
  IC50: > 1.02 µM
[2]
  AUC: 0.504
  IC50: 2.05 µM
[3]
  AUC: 0.783
  IC50: 3.44 µM
[4]; screen: GDSC drug entry 1014
  AUC: 0.932
  IC50: > 5 µM
[5]
  AUC: 0.294
  IC50: 0.0965 µM
[6]
  AUC: 0.59
  IC50: 1.68 µM
[7]
  AUC: 0.544
  IC50: 0.411 µM

## 769-P (kidney, adherent)
[1]
  AUC: 0.983
  IC50: > 1.02 µM
[2]
  AUC: 0.607
  IC50: 4.05 µM
[3]
  AUC: 0.767
  IC50: 4.14 µM
[4]; screen: GDSC drug entry 1526
  AUC: 0.835
  IC50: 3.72 µM
[5]
  AUC: 0.657
  IC50: 0.911 µM
[6]
  AUC: 0.631
  IC50: 2.38 µM
[7]
  AUC: 0.546
  IC50: 0.434 µM

## 5637 (bladder, adherent)
[1]
  AUC: 0.985
  IC50: > 1.02 µM
[2]
  AUC: 0.864
  IC50: 23.8 µM
[3]
  AUC: 0.771
  IC50: 3.55 µM
[4]; screen: GDSC drug entry 1014
  AUC: 0.903
  IC50: > 5 µM
[4]; screen: GDSC drug entry 1526
  AUC: 0.949
  IC50: > 5 µM
[5]
  AUC: 0.199
  IC50: 0.0462 µM
[6]
  AUC: 0.508
  IC50: 1.05 µM
[7]
  AUC: 0.845
  IC50: 3.19 µM

## 8305C (thyroid, adherent)
[1]
  AUC: 0.976
  IC50: > 1.02 µM
[2]
  AUC: 0.982
  IC50: > 32 µM
[3]
  AUC: 0.674
  IC50: 2.29 µM
[4]; screen: GDSC drug entry 1014
  AUC: 0.632
  IC50: 0.813 µM
[4]; screen: GDSC drug entry 1526
  AUC: 0.657
  IC50: 0.982 µM
[5]
  AUC: 0.982
  IC50: > 5.12 µM
[6]
  AUC: 0.636
  IC50: 2.67 µM
[7]
  AUC: 0.559
  IC50: 0.486 µM

## 23132-87 (stomach, adherent)
[1]
  AUC: 0.982
  IC50: > 1.02 µM
[2]
  AUC: 0.606
  IC50: 3.96 µM
[3]
  AUC: 0.776
  IC50: 4.22 µM
[4]; screen: GDSC drug entry 1014
  AUC: 0.805
  IC50: 2.63 µM
[4]; screen: GDSC drug entry 1526
  AUC: 0.859
  IC50: 4.41 µM
[5]
  AUC: 0.453
  IC50: 0.237 µM
[6]
  AUC: 0.797
  IC50: 7.86 µM
[7]
  AUC: 0.589
  IC50: 0.566 µM

## A3-KAW (B-cell lymphoma, suspension)
[1]
  AUC: 0.976
  IC50: > 1.02 µM
[2]
  AUC: 0.098
  IC50: 0.15 µM
[3]
  AUC: 0.877
  IC50: 6.81 µM
[4]; screen: GDSC drug entry 1014
  AUC: 0.987
  IC50: > 5 µM
[4]; screen: GDSC drug entry 1526
  AUC: 0.687
  IC50: 0.922 µM
[5]
  AUC: 0.373
  IC50: 0.155 µM
[6]
  AUC: 0.666
  IC50: 2.61 µM
[7]
  AUC: 0.5
  IC50: 0.319 µM

## A4-Fuk (B-cell lymphoma, suspension)
[1]
  AUC: 0.985
  IC50: > 1.02 µM
[2]
  AUC: 0.486
  IC50: 1.82 µM
[3]
  AUC: 0.929
  IC50: > 10.2 µM
[4]; screen: GDSC drug entry 1014
  AUC: 0.66
  IC50: 0.89 µM
[4]; screen: GDSC drug entry 1526
  AUC: 0.876
  IC50: > 5 µM
[5]
  AUC: 0.824
  IC50: 3.21 µM
[6]
  AUC: 0.687
  IC50: 3.43 µM
[7]
  AUC: 0.562
  IC50: 0.476 µM

## A101D (melanoma, adherent)
[1]
  AUC: 0.981
  IC50: > 1.02 µM
[2]
  AUC: 0.925
  IC50: > 32 µM
[3]
  AUC: 0.861
  IC50: > 10.2 µM
[4]; screen: GDSC drug entry 1014
  AUC: 0.564
  IC50: 0.488 µM
[4]; screen: GDSC drug entry 1526
  AUC: 0.602
  IC50: 0.636 µM
[5]
  AUC: 0.651
  IC50: 0.925 µM
[6]
  AUC: 0.646
  IC50: 2.79 µM
[7]
  AUC: 0.44
  IC50: 0.212 µM

## A172 (glioma, adherent)
[1]
  AUC: 0.988
  IC50: > 1.02 µM
[2]
  AUC: 0.876
  IC50: 29.7 µM
[3]
  AUC: 0.837
  IC50: 6.52 µM
[4]; screen: GDSC drug entry 1526
  AUC: 0.86
  IC50: 3.94 µM
[5]
  AUC: 0.593
  IC50: 0.57 µM
[6]
  AUC: 0.7
  IC50: 3.56 µM
[7]
  AUC: 0.496
  IC50: 0.312 µM

## A204 (rhabdomyosarcoma, adherent)
[1]
  AUC: 0.807
  IC50: 0.723 µM
[2]
  AUC: 0.786
  IC50: 18.3 µM
[3]
  AUC: 0.939
  IC50: > 10.2 µM
[4]; screen: GDSC drug entry 1526
  AUC: 0.869
  IC50: > 5 µM
[5]
  AUC: 0.603
  IC50: 0.669 µM
[6]
  AUC: 0.747
  IC50: 6.42 µM
[7]
  AUC: 0.41
  IC50: 0.169 µM

## A253 (head and neck, adherent)
[1]
  AUC: 0.988
  IC50: > 1.02 µM
[2]
  AUC: 0.949
  IC50: > 32 µM
[3]
  AUC: 0.88
  IC50: 10.2 µM
[4]; screen: GDSC drug entry 1014
  AUC: 0.81
  IC50: 2.54 µM
[4]; screen: GDSC drug entry 1526
  AUC: 0.886
  IC50: > 5 µM
[5]
  AUC: 0.759
  IC50: 1.75 µM
[6]
  AUC: 0.627
  IC50: 2.21 µM
[7]
  AUC: 0.485
  IC50: 0.291 µM
